In the supplement of paper PMC4604168 (melanoma cell lines):
The other results are listed elsewhere or left out. Repeats are few or missing, and single values can be far off.

Legend:
Experiment in all cases: cell count relative to DMSO control; melanoma cells; higher = more viable cells
Conditions in all cases: library dose: low library concentration; 72 h
MZ2-MEL = tested on: MZ2-MEL
MeWo = tested on: MeWo
RPMI7951 = tested on: RPMI7951
RVH-421 = tested on: RVH-421
SkMel28 = tested on: SkMel28
SkMel2 = tested on: SkMel2
SkMel30 = tested on: SkMel30
UACC62 = tested on: UACC62
WM115 = tested on: WM115
WM1716 = tested on: WM1716
WM1745 = tested on: WM1745
WM3526 = tested on: WM3526
WM3619 = tested on: WM3619
WM451Lu = tested on: WM451Lu
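Also: cell number obtained by counting DAPI-stained nuclei in high-throughput microscope images with image analysis software, screen run in 1,536-well plates.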

| SMILES | cell count (MZ2-MEL) | cell count (MeWo) | cell count (RPMI7951) | cell count (RVH-421) | cell count (SkMel28) | cell count (SkMel2) | cell count (SkMel30) | cell count (UACC62) | cell count (WM115) | cell count (WM1716) | cell count (WM1745) | cell count (WM3526) | cell count (WM3619) | cell count (WM451Lu) |
| --- | --- | --- | --- | --- | --- | --- | --- | --- | --- | --- | --- | --- | --- | --- |
| C[C@@H](Oc1cc(-c2cnn(C3CCNCC3)c2)cnc1N)c1c(Cl)ccc(F)c1Cl [Crizotinib] + Nc1ccn([C@@H]2O[C@H](CO)[C@@H](O)C2(F)F)c(=O)n1 [gemcitabine] (first compound 0.2 µM, partner dose 0.0004 µM) | 100% | 102% | 106% | 99.1% | 111% | 98.2% | 100% | 95.7% | 115% | 106% | 94.5% | 116% | 83.6% | 81% |
| CN1CCN(c2ccc3nc(-c4c(N)c5c(F)cccc5[nH]c4=O)[nH]c3c2)CC1 [Dovitinib] + Nc1cccc2c1CN(C1CCC(=O)NC1=O)C2=O [lenalidomide] (first compound 0.1 µM, partner dose 1 µM) | 88.4% | 87% | 106% | 119% | 105% | 104% | 74.4% | 98.8% | 94.8% | 102% | 76% | 91.1% | 98% | 84.5% |
| CN1CCN(c2ccc3nc(-c4c(N)c5c(F)cccc5[nH]c4=O)[nH]c3c2)CC1 [Dovitinib] + Nc1nc(F)nc2c1ncn2[C@@H]1O[C@H](CO)[C@@H](O)[C@@H]1O [fludarabine] (first compound 0.1 µM, partner dose 0.2 µM) | 94.8% | 44.9% | 106% | 124% | 71.9% | 12.8% | 16.9% | 85.5% | 88.4% | 125% | 94.6% | 32.5% | 86.7% | 56.7% |
| CS(=O)(=O)CCNCc1ccc(-c2ccc3ncnc(Nc4ccc(OCc5cccc(F)c5)c(Cl)c4)c3c2)o1 [lapatinib] + COc1ccc(Cl)c(Nc2nc3ccccc3nc2NS(=O)(=O)c2cccc(NC(=O)C(C)(C)N)c2)c1 [XL147] (first compound 0.8 µM, partner dose 0.8 µM) | 85.4% | 103% | 86.5% | 87.9% | 98.3% | 95.2% | 76.5% | 89.5% | 104% | 97.5% | 84.3% | 111% | 106% | 95.6% |
| CNC(=O)c1cc(Oc2ccc(NC(=O)Nc3ccc(Cl)c(C(F)(F)F)c3)cc2)ccn1 [sorafenib] + CS(=O)(=O)CCNCc1ccc(-c2ccc3ncnc(Nc4ccc(OCc5cccc(F)c5)c(Cl)c4)c3c2)o1 [lapatinib] (first compound 0.4 µM, partner dose 0.8 µM) | 96.5% | 86.8% | 73.2% | 89.8% | 97.4% | 87.4% | 106% | 96.8% | 105% | 98.8% | 104% | 86.6% | 90.9% | 99.4% |
| CNC(=O)c1cc(Oc2ccc(NC(=O)Nc3ccc(Cl)c(C(F)(F)F)c3)cc2)ccn1 [sorafenib] + Clc1ccc(Nc2nnc(Cc3ccncc3)c3ccccc23)cc1 [vatalanib] (first compound 0.4 µM, partner dose 2 µM) | 94% | 77.4% | 93.7% | 88.5% | 90.1% | 92.9% | 108% | 90.9% | 104% | 104% | 100% | 77.6% | 95.1% | 109% |
| C[C@@H](Oc1cc(-c2cnn(C3CCNCC3)c2)cnc1N)c1c(Cl)ccc(F)c1Cl [Crizotinib] + Cn1nnc2c(C(N)=O)ncn2c1=O [temozolomide] (first compound 0.2 µM, partner dose 2 µM) | 99.5% | 95.5% | 89.4% | 101% | 83.9% | 84.7% | 87.7% | 91.8% | 92.3% | 96.2% | 89.5% | 117% | 112% | 117% |
| C[C@@H](Oc1cc(-c2cnn(C3CCNCC3)c2)cnc1N)c1c(Cl)ccc(F)c1Cl [Crizotinib] + O=C(O)c1ccc2c(c1)nc(Nc1cccc(Cl)c1)c1ccncc12 [CX4945] (first compound 0.2 µM, partner dose 0.4 µM) | 89.6% | 91.2% | 110% | 81.2% | 84.6% | 99.2% | 105% | 98.5% | 105% | 98.1% | 88.2% | 82.3% | 112% | 89.1% |
